The record followed here is the supplement of paper PMC4604168 (melanoma cell lines).

The other results are listed elsewhere or left out. Single values are uncertain, as repeats are few or missing.
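Note: cells treated in 1,536-well plates, then fixed and DAPI-stained, with nuclei counted from automated high-throughput microscope images.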

The subject of the first test is COLO800. The test is described as follows: cell count relative to DMSO control; melanoma cells; higher = more viable cells. The note with it: library dose: standard library concentration; 72 h.
Take `C=C(c1ccc(C(=O)O)cc1)c1cc2c(cc1C)C(C)(C)CCC2(C)C` [Bexarotene] + c1cc(-c2cnn3cc(-c4ccc(OCCN5CCCCC5)cc4)cnc23)ccn1 [Dorsomorphin] (first compound 10 µM, partner dose 2 µM): the cell count was 61.5%.
On the same count and under the same terms, the same measure for `CS(=O)(=O)c1ccc(C(=O)Nc2ccc(Cl)c(-c3ccccn3)c2)c(Cl)c1` [vismodegib] + O=C(O)C(=O)Nc1sc2c(c1C(=O)O)CCNC2 [TCS401] (first compound 5 µM, partner dose 8.33333 µM): 116%; for `CN(c1ncccc1CNc1nc(Nc2ccc3c(c2)CC(=O)N3)ncc1C(F)(F)F)S(C)(=O)=O` + N#Cc1c(O)c2c(-c3ccc(-c4ccccc4O)cc3)csc2[nH]c1=O [A769662] (first compound 0.4 µM, partner dose 10 µM): 125%; for `CN(c1ncccc1CNc1nc(Nc2ccc3c(c2)CC(=O)N3)ncc1C(F)(F)F)S(C)(=O)=O` + O=S(=O)(c1ccccc1)N(CC(F)(F)F)c1ccc(C(O)(C(F)(F)F)C(F)(F)F)cc1 [T0901317] (first compound 0.4 µM, partner dose 7 µM): 55.1%.
The molecule `C=C(c1ccc(C(=O)O)cc1)c1cc2c(cc1C)C(C)(C)CCC2(C)C` [Bexarotene] + COc1ccc(COc2ccc(Cc3cnc(N)nc3N)cc2OC)cc1 [GW2580] (first compound 10 µM, partner dose 5 µM) gave a cell count of 98.8%.
Turning to `NC1(c2ccc(-c3nc4ccn5c(=O)[nH]nc5c4cc3-c3ccccc3)cc2)CCC1` + O=C(O)c1ccc(-c2c[nH]c3ncc(-c4ccccc4)cc23)cc1C1CCCC1 [GSK650394] (first compound 2 µM, partner dose 0.8 µM), the cell count was determined as 62.8%.
Same read-out and setting: the same measure for `CCCS(=O)(=O)Nc1ccc(F)c(C(=O)c2c[nH]c3ncc(Cl)cc23)c1F` + Cc1nc(Nc2ncc(C(=O)Nc3c(C)cccc3Cl)s2)cc(N2CCN(CCO)CC2)n1 [dasatanib] (first compound 0.4 µM, partner dose 0.02 µM): 49.6%.

The next test relates to COLO829. The test is described as above. Conditions: library dose: standard library concentration; 72 h.
The molecule `CN(c1ncccc1CNc1nc(Nc2ccc3c(c2)CC(=O)N3)ncc1C(F)(F)F)S(C)(=O)=O` + O=C1NC(=O)/C(=C/c2ccc(-c3ccc(F)cc3O)o2)S1 [AS252424] (first compound 0.4 µM, partner dose 5 µM) came in with a cell count of 70.1%.
Still for that read-out and setting: the same measure for `C=C(c1ccc(C(=O)O)cc1)c1cc2c(cc1C)C(C)(C)CCC2(C)C` [Bexarotene] + CCN(CC)CCCCNc1ncc2cc(-c3cc(OC)cc(OC)c3)c(NC(=O)NC(C)(C)C)nc2n1 [PD173074] (first compound 10 µM, partner dose 0.5 µM): 77.8%.
Molecule `NC1(c2ccc(-c3nc4ccn5c(=O)[nH]nc5c4cc3-c3ccccc3)cc2)CCC1` + CC(C)CCN1c2nc(Nc3cc(F)c(O)c(F)c3)ncc2N(C)C(=O)C1C [BID1870] (first compound 2 µM, partner dose 1 µM) had a cell count of 95.8%.
On the same count and under the same terms, the same measure for `C=C(c1ccc(C(=O)O)cc1)c1cc2c(cc1C)C(C)(C)CCC2(C)C` [Bexarotene] + Cn1c(Nc2ccc(C(F)(F)F)cc2)nc2cc(Oc3ccnc(-c4ncc(C(F)(F)F)[nH]4)c3)ccc21 [CHIR265] (first compound 10 µM, partner dose 0.4 µM): 75.1%; for `C=C(c1ccc(C(=O)O)cc1)c1cc2c(cc1C)C(C)(C)CCC2(C)C` [Bexarotene] + O=S(=O)(c1ccccc1)N(CC(F)(F)F)c1ccc(C(O)(C(F)(F)F)C(F)(F)F)cc1 [T0901317] (first compound 10 µM, partner dose 7 µM): 58.9%; for `CS(=O)(=O)c1ccc(C(=O)Nc2ccc(Cl)c(-c3ccccn3)c2)c(Cl)c1` [vismodegib] + O=C(Nc1ccccc1)c1cc([N+](=O)[O-])ccc1Cl [GW9662] (first compound 5 µM, partner dose 10 µM): 78.9%.
The molecule `C=C(c1ccc(C(=O)O)cc1)c1cc2c(cc1C)C(C)(C)CCC2(C)C` [Bexarotene] + CC(C)(C)c1cnc(CSc2cnc(NC(=O)C3CCNCC3)s2)o1 [SNS-032] (first compound 10 µM, partner dose 0.05 µM) returned a cell count of 64.1%.
Same read-out and setting: in the case of `C=C(c1ccc(C(=O)O)cc1)c1cc2c(cc1C)C(C)(C)CCC2(C)C` [Bexarotene] + CC(C)CCN1c2nc(Nc3cc(F)c(O)c(F)c3)ncc2N(C)C(=O)C1C [BID1870] (first compound 10 µM, partner dose 1 µM) it was 100%.
Molecule `NC1(c2ccc(-c3nc4ccn5c(=O)[nH]nc5c4cc3-c3ccccc3)cc2)CCC1` + COc1ccc(COc2ccc(Cc3cnc(N)nc3N)cc2OC)cc1 [GW2580] (first compound 2 µM, partner dose 5 µM) came in with a cell count of 69.7%.
Turning to `CS(=O)(=O)c1ccc(C(=O)Nc2ccc(Cl)c(-c3ccccn3)c2)c(Cl)c1` [vismodegib] + O=C(O)[C@@H]1[O][Sb](=[O])([O][Sb]2(=[O])[O][C@H]([C@H](O)CO)[C@H](O)[C@H](C(=O)O)[O]2)[O][C@H]([C@H](O)CO)[C@@H]1O [stibogluconate] (first compound 5 µM, partner dose 10 µM), the cell count amounted to 117%.
Same read-out and setting: in the case of `CS(=O)(=O)c1ccc(C(=O)Nc2ccc(Cl)c(-c3ccccn3)c2)c(Cl)c1` [vismodegib] + Oc1nc(-c2ccc(C(F)(F)F)cc2)nc2c1CSCC2 [XAV939] (first compound 5 µM, partner dose 10 µM) it was 124%; in that of `CCCS(=O)(=O)Nc1ccc(F)c(C(=O)c2c[nH]c3ncc(Cl)cc23)c1F` + CC(C)(C)c1cnc(CSc2cnc(NC(=O)C3CCNCC3)s2)o1 [SNS-032] (first compound 0.4 µM, partner dose 0.05 µM), 65.3%; in that of `CN(c1ncccc1CNc1nc(Nc2ccc3c(c2)CC(=O)N3)ncc1C(F)(F)F)S(C)(=O)=O` + Cn1c(=O)n(-c2ccc(C(C)(C)C#N)cc2)c2c3cc(-c4cnc5ccccc5c4)ccc3ncc21 [NVP-BEZ235] (first compound 0.4 µM, partner dose 0.02 µM), 59.7%.
The same measure, in the same setting: the same measure for `NC1(c2ccc(-c3nc4ccn5c(=O)[nH]nc5c4cc3-c3ccccc3)cc2)CCC1` + NC(=O)Nc1cc(-c2cccc(F)c2)sc1C(=O)N[C@H]1CCCNC1 [AZD7762] (first compound 2 µM, partner dose 0.1 µM): 76.9%; for `NC1(c2ccc(-c3nc4ccn5c(=O)[nH]nc5c4cc3-c3ccccc3)cc2)CCC1` + O=C(Nc1ccccc1)c1cc([N+](=O)[O-])ccc1Cl [GW9662] (first compound 2 µM, partner dose 10 µM): 54.1%.
`C=C(c1ccc(C(=O)O)cc1)c1cc2c(cc1C)C(C)(C)CCC2(C)C` [Bexarotene] + O=C(CCCCCCC(=O)Nc1ccccc1)NO [vorinostat] (first compound 10 µM, partner dose 0.4 µM) came in with a cell count of 50.5%.
The molecule `CCCS(=O)(=O)Nc1ccc(F)c(C(=O)c2c[nH]c3ncc(Cl)cc23)c1F` + O=C1NC(=O)/C(=C/c2ccc(-c3ccc(F)cc3O)o2)S1 [AS252424] (first compound 0.4 µM, partner dose 5 µM) returned a cell count of 76.7%.
The molecule `NC1(c2ccc(-c3nc4ccn5c(=O)[nH]nc5c4cc3-c3ccccc3)cc2)CCC1` + O=C(O)C(=O)Nc1sc2c(c1C(=O)O)CCNC2 [TCS401] (first compound 2 µM, partner dose 8.33333 µM) displayed a cell count of 97.2%.
On the same count and under the same terms, in the case of `CN(c1ncccc1CNc1nc(Nc2ccc3c(c2)CC(=O)N3)ncc1C(F)(F)F)S(C)(=O)=O` + CC(=O)c1c(C)c2cnc(Nc3ccc(N4CCNCC4)cn3)nc2n(C2CCCC2)c1=O [palbociclib] (first compound 0.4 µM, partner dose 0.2 µM) it was 57%; in that of `C=C(c1ccc(C(=O)O)cc1)c1cc2c(cc1C)C(C)(C)CCC2(C)C` [Bexarotene] + CCCCCCCCCCCC1=C(O)C(=O)C=C(O)C1=O [Embelin] (first compound 10 µM, partner dose 6 µM), 51.4%; in that of `CN(c1ncccc1CNc1nc(Nc2ccc3c(c2)CC(=O)N3)ncc1C(F)(F)F)S(C)(=O)=O` + COc1ccc(-c2ccc3c(N4CCOCC4)nc(N4C[C@@H](C)O[C@@H](C)C4)nc3n2)cc1CO [KU0063794] (first compound 0.4 µM, partner dose 0.1 µM), 72.3%.
Same read-out and setting: in the case of `CN(c1ncccc1CNc1nc(Nc2ccc3c(c2)CC(=O)N3)ncc1C(F)(F)F)S(C)(=O)=O` + COC(=O)c1sccc1S(=O)(=O)Nc1ccc(Nc2ccccc2)cc1OC [GSK0660] (first compound 0.4 µM, partner dose 5 µM) it was 59%.
On to `NC1(c2ccc(-c3nc4ccn5c(=O)[nH]nc5c4cc3-c3ccccc3)cc2)CCC1` + O=c1cc(-c2cccc3c2Sc2ccccc2S3)oc(N2CCOCC2)c1 [KU55933] (first compound 2 µM, partner dose 5 µM), for which the cell count is 70.2%.
Still for that read-out and setting: in the case of `CN(c1ncccc1CNc1nc(Nc2ccc3c(c2)CC(=O)N3)ncc1C(F)(F)F)S(C)(=O)=O` + CCCCCCCCCCCC1=C(O)C(=O)C=C(O)C1=O [Embelin] (first compound 0.4 µM, partner dose 6 µM) it was 53.9%; in that of `CN(c1ncccc1CNc1nc(Nc2ccc3c(c2)CC(=O)N3)ncc1C(F)(F)F)S(C)(=O)=O` + COc1cc2ncnc(Nc3ccc(Oc4ccccc4)cc3)c2cc1OC [SrcI1] (first compound 0.4 µM, partner dose 10 µM), 94.3%.
